From article PMC4336329 (PLoS ONE, 2015)
About 2,200 (0.71%) of roughly 310,000 compounds showed an effect of 50% or more. The effect is printed as a negative number. Some of the results follow.

What follows are compounds tested against human ether-à-go-go-related gene (hERG) potassium channel (human, UniProt Q12809) (assay: primary screen, population patch clamp on CHO cells stably expressing hERG).
human ether-à-go-go-related gene (hERG) potassium channel, sequence (Q12809 whole entry, looked up): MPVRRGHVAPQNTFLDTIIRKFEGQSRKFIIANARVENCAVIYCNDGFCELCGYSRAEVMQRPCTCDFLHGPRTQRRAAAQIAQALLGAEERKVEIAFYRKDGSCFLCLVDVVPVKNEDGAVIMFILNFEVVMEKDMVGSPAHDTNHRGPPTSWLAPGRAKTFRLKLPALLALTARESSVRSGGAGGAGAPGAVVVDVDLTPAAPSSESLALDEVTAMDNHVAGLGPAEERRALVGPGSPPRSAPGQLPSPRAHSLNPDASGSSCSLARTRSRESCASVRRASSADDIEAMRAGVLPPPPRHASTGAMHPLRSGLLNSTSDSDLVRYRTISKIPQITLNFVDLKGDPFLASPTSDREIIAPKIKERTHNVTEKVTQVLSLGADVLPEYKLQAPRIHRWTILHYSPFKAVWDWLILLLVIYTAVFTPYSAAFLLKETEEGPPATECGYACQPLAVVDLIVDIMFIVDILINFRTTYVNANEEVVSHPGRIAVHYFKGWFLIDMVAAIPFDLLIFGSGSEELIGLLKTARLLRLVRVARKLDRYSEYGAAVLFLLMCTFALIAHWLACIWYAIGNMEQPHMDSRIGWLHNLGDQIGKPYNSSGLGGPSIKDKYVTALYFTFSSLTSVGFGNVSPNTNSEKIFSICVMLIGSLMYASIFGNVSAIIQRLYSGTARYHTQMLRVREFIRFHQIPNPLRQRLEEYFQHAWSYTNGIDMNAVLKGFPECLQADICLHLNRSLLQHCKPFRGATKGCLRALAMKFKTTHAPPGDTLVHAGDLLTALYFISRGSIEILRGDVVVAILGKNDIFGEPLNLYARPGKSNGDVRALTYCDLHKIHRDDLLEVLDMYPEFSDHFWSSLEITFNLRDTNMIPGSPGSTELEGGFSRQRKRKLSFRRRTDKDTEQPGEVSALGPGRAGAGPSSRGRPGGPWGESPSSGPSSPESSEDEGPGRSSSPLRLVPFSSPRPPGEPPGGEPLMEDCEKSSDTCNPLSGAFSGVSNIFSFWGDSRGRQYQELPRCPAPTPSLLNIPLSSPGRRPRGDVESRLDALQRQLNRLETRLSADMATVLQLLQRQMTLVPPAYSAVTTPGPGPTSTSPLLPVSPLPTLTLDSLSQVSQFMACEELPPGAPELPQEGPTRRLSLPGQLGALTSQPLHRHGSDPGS

SMILES | hERG current change (%, negative = inhibition) at 1uM [%]
CCOC(=O)CCc1c(C)c2ccc(OCc3nn[nH]n3)c(C)c2oc1=O | 11.7
O=C(NCc1n[nH]c(=S)n1-c1cccc(Cl)c1)c1ccc(S(=O)(=O)N2CCCC2)cc1 | 3.82
S=c1[nH]nc(C2CCCCC2)n1/N=C/c1ccncc1 | 8.26
Cc1cc(=O)n2c(n1)OC(CO)C2 (centres unmarked) | 12.1
Cc1ccc(CNC(=O)c2ccccc2NC(=O)CN2CC(C)OC(C)C2)cc1 (centres unmarked) | 4.37
C=CCOC(=O)c1sc(NC(=O)c2ccco2)nc1C | 11.7
CCCc1nc2ccccc2[nH]1 | 17
O=c1c2ccccc2nc(/C=C/c2cccc([N+](=O)[O-])c2)n1CCO | -4.97
COC(=O)Cc1ccc(NC(=O)c2ccc(C)c(C)c2)cc1 | 15
CCOc1ccccc1Cn1c(=O)sc2ccccc21 | 13.4
CCN(C(=O)c1cnc(NC(C)C)cc1C(F)(F)F)c1ccc(Cl)cc1Cl | 11.2
CCc1nccn1CCC(=O)N1CCCC(N2CCN(c3cccc(Cl)c3)CC2)C1 (centres unmarked) | -3.15
COc1ccc(NC(=O)CSc2nc3c(c(=O)n2-c2ccc(C)cc2)SCC3)c(OC)c1 | 4.24
CC(=O)NNc1ncnc2c1cnn2-c1ccc(C)c(C)c1 | 13.6
COc1cccc(CNc2nccs2)c1O | 12.9
O=C(NCc1ccccc1)c1ccc(NC2=NC3CS(=O)(=O)CC3S2)cc1 (centres unmarked) | 7.01
CC1Sc2ccc(S(=O)(=O)CCC(=O)NCc3ccccc3Cl)cc2NC1=O (centres unmarked) | 15
CSc1nn(-c2ccc(C(=O)OC(C(=O)NC(N)=O)C(C)C)cc2)c(=S)s1 (centres unmarked) | 9.82
COc1ccccc1N1CCN(Cc2c(F)cccc2F)CC1 | -16
CC(C)c1ccc(C2(C)NC(=O)N(CC(=O)N3CCN(C(=O)c4cccs4)CC3)C2=O)cc1 (centres unmarked) | 3.27
Cc1cc(C)nc(N2CCC(C(=O)NNC(=O)c3ccccc3)CC2)n1 | 14.3
CCN(C(=O)CN(C)Cc1c(F)cccc1Cl)c1c(N)n(Cc2ccccc2)c(=O)[nH]c1=O | 12.8

SMILES | hERG current change (%, negative = inhibition) at 1uM [%]
O=C(COC(=O)CCCN1C(=O)c2cccc3cccc(c23)C1=O)Nc1cccc(Br)c1 | 10.8
O=C(CSc1nnc(COc2cccc3cccnc23)o1)N1CCN(C(=O)c2ccco2)CC1 | 11.2
Cc1ccccc1C(=O)Nc1ccccc1C(=O)NC1CC1 | 11.6
C/C(=N\NC(=S)NC(C)C)c1ccc(Cl)s1 | 10.6
COc1ccc(NC2CCCN(C(=O)CCN3CCCO3)C2)cc1 (centres unmarked) | 9.49
COc1ccc(OC)c(CCNC(=O)c2ccccc2NC(=O)C2=C(C)OCCS2)c1 | 8.14
CCOP(=O)(OCC)C(Nc1ccccc1)c1cc(OC)ccc1OC (centres unmarked) | 10.8
CCOC(=O)c1c(NC(=O)c2cnn3c2NC(c2cccc(OC)c2)CC3C(F)(F)F)sc2c1CCCC2 (centres unmarked) | 0.314
CCOc1ccc(Nc2nc(N)c([N+](=O)[O-])c(N3CCOCC3)n2)cc1 | 14.4
CCOC(=O)N1CCN(Cc2nc3ccc([N+](=O)[O-])cc3c(=O)n2-c2ccccc2F)CC1 | 0.531
Cc1ccc(NC(=O)CN2CCC(NC(=O)c3ccccc3F)CC2)cc1C.Cl | -2.46
COc1ccccc1N1CCN(Cc2nc(-c3ccc(F)cc3)oc2C)CC1 | -16.9
CCOCc1cnc(C)nc1NCC(=O)c1c(C)[nH]c2ccc(OC)cc12.I | 4.15
Cn1c(NCc2ccccc2)nc2c1c(=O)n(Cc1ccccc1)c(=O)n2C | 5
CC(OC(=O)CNC(=O)c1sc2ccccc2c1Cl)c1ccccc1 (centres unmarked) | 18.5
CC(C)Cn1c(CCCNC(=O)c2ccco2)nc2ccccc21 | 9.49
CNc1c([N+](=O)[O-])cnn1-c1ccc(F)cc1 | 8.77
O=C1N(Cc2cccc(Cl)c2)C[C@@H]2C[C@@H](c3cccc4ncccc34)N3CCC[C@@]123 | -2.07
CC(C)=CC(=O)N1CCCC(N2CCN(c3ccccc3C)CC2)C1 (centres unmarked) | 3.56
COc1ccc(NC(=O)C(c2ccc(OC)cc2)N(C)C(=O)CNC(C)=O)cc1 (centres unmarked) | 8.42
CCOC(=O)c1sc(NC(=O)Cn2nnc3sc4c(c3c2=O)CCC(C(C)(C)C)C4)nc1C (centres unmarked) | 2.34
O=C(OCCOCCN=C1NS(=O)(=O)c2ccccc21)c1ccccc1 | 15.9
